# Assay results from PubChem BioAssay (Tox21).
# This list was built around the results that the source calls inconclusive (neither active nor inactive); the mix of calls is not that of the screen. For some of these results: No potency is given beside an inconclusive call; the fits are too rough. Active and inactive are the calls of the source. Unless noted, calls come from the whole dose curve; as a rule, active = well fitted curve in the direction sought with a large enough effect in the repeat runs; inconclusive = weak or mixed curves; inactive = no such curve, though single readings can be large; an effect the other way counts as inactive or inconclusive.
# Assays:
# [1] = qHTS RealTime-Glo MT Cell Viability Assay in HEK293 cells - 24 hour (AID 1224886); conditions: RealTime-Glo luminescence; series mostly up to 76.8 µM; note: potency is the fitted concentration of half-maximal effect; nearly all actives have a fitted effect of over 50% in size
# How it was run: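 Tox21 10K qHTS, HEK293, 600 cells/well, RealTime-Glo reagent co-dispensed with cells; 5 h preincubation, compound by pintool, 37 C, luminescence at 0–40 h.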
# [2] = qHTS RealTime-Glo MT Cell Viability Assay in HEK293 cells - 8 hour (AID 1224887); conditions: RealTime-Glo luminescence; series mostly up to 76.8 µM; note: nearly all actives have a fitted effect of over 50% in size; note: potency is the fitted concentration of half-maximal effect
# How it was run: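 600 HEK293 cells per well, dispensed already mixed with RealTime-Glo MT reagents. Compound dosing came 5 h later. The same wells were read for luminescence at 0, 8, 16, 24, 32 and 40 h of exposure at 37 C.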
# [3] = qHTS assay to identify small molecule antagonists of the androgen receptor (AR) signaling pathway using the MDA cell line in the presence of 0.5 nM R1881 - cell viability counter screen (AID 1259242); conditions: MDA-kb2 viability, CellTiter-Fluor protease fluorescence, 16 h; series mostly up to 92.4 µM; note: potency is the fitted concentration of half-maximal effect; nearly all actives have a fitted effect of over 45% in size
# How it was run: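 qHTS format. MDA-kb2 (MMTV-luc, AR/GR responsive) + cpd + 0.5 nM R1881 final, 16 hr 37C/0% CO2 → CellTiter-Fluor 30 min → fluorescence intensity.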
# [4] = target: Androgen receptor (Homo sapiens) (UniProt P10275); experiment: qHTS assay to identify small molecule antagonists of the androgen receptor (AR) signaling pathway using the MDA cell line in the presence of 0.5 nM R1881 (AID 1259243); conditions: MDA-kb2 MMTV-luciferase, R1881 0.5 nM, 16 h; series mostly up to 92.4 µM; note: potency is the fitted concentration of half-maximal effect; nearly all actives have a fitted effect of over 50% in size
# How it was run: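 Antagonist mode quantitative HTS in MDA-kb2 MMTV-luciferase cells, agonist R1881 at 0.5 nM final, 16 hr exposure at 37C and 0% CO2, luminescent detection.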
# [5] = qHTS assay to identify small molecule phospholipidosis (PLD) inducers (AID 1259344; active = well fitted curve in the direction sought with a large enough effect; inconclusive = small, poorly fitted or top-dose-only effect, or another doubt; inactive = no such curve, though single readings can be large; an effect the other way counts as inactive or inconclusive; note: potency is the fitted concentration of half-maximal effect); conditions: HepG2 phospholipidosis, LipidTOX Red imaging, 24 h; series mostly up to 38.3 µM
# How it was run: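 Cells (HepG2, 900 per well) attach for 4 h, receive LipidTOX Red and compound together, incubate 24 h at 37 C, are fixed 30 min with paraformaldehyde/Hoechst, then imaged at one site per well.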
# [6] = qHTS assay to identify small molecule agonists of the sonic hedgehog signaling (Shh) pathway - cell viability counter screen (AID 1259366); conditions: NIH/3T3 Gli1-Luc viability, CellTiter-Fluor, 24 h; series mostly up to 92.4 µM; note: nearly all actives have a fitted effect of over 50% in size; note: potency is the fitted concentration of half-maximal effect
# How it was run: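 Same-well cytotoxicity read. Gli1-Luc reporter 3T3 cells; compounds 24hr, 37C/5% CO2; CellTiter-Fluor fluorescence.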
# [7] = qHTS assay to identify small molecule antagonists of the sonic hedgehog signaling (Shh) pathway - cell viability counter screen (AID 1259367); conditions: NIH/3T3 Gli1-Luc viability, CellTiter-Fluor, 24 h; series mostly up to 92.4 µM; note: nearly all actives have a fitted effect of over 55% in size; note: potency is the fitted concentration of half-maximal effect
# How it was run: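 Cytotoxicity was assessed in parallel with Shh reporter activity by measuring live-cell protease fluorescence (CellTiter-Fluor) in NIH/3T3 cells stably carrying Gli1-Luc, treated with compound under conditioned medium stimulation for 23 hr plus 1 hr reagent incubation.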
# [8] = qHTS assay to identify small molecule antagonists of the estrogen receptor alpha (ER-alpha) signaling pathway using the BG1 cell line in the presence of 0.1 nM 17-beta-estradiol - cell viability counter screen (AID 1259241); conditions: VM7Luc4E2 (BG1) viability, CellTiter-Fluor protease, 22 h, 0.1 nM estradiol agonist added; series mostly up to 92.4 µM; note: nearly all actives have a fitted effect of over 40% in size; note: potency is the fitted concentration of half-maximal effect
# How it was run: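 Estradiol-stimulated (0.1 nM) VM7Luc4E2 cells exposed to compounds 22 hr; viability measured by fluorescence of cleaved CellTiter-Fluor substrate after 30 min.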
# [9] = target: Estrogen receptor (Homo sapiens) (UniProt P03372); experiment: qHTS assay to identify small molecule antagonists of the estrogen receptor alpha (ER-alpha) signaling pathway using the BG1 cell line in the presence of 0.1 nM 17-beta-estradiol (AID 1259244); conditions: VM7Luc4E2 (BG1) ERE-luciferase, antagonist mode, 0.1 nM E2, 22 h; series mostly up to 92.4 µM
# How it was run: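 Reporter is a stably transfected luciferase under four estrogen responsive elements in VM7Luc4E2 cells expressing native full-length ER-alpha; inhibition of 0.1 nM (final) 17beta-estradiol-driven signal over 22 h is read by luminescence.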
# [10] = qHTS assay to identify small molecule HDAC inhibitors - cell viability counter screen (AID 1259365); conditions: HCT-116 viability, CellTiter-Glo ATP luminescence, 2 h; series mostly up to 92.4 µM; note: nearly all actives have a fitted effect of over 50% in size
# How it was run: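 After overnight seeding at 1,500 cells per well, wild-type HCT-116 cultures took up compounds in DMSO for 2hr at 37 C. Viable cell content came from luminescence with CellTiter-Glo.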
# [11] = A CellTox Green Cytotoxicity Assay to monitor cytotoxicity in HepG2 cells - 8 hour (AID 1224890); conditions: CellTox Green fluorescence; series mostly up to 76.8 µM; note: potency is the fitted concentration of half-maximal effect; nearly all actives have a fitted effect of over 45% in size
# How it was run: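 First, HepG2 cells (600/well) mixed with reagent were plated; second, after 5 h at 37 C they received compounds via pintool; third, fluorescence was measured at 0 h through 40 h at 8 h intervals.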
# [12] = A CellTox Green Cytotoxicity Assay to monitor cytotoxicity in HEK293 cells - 16 hour (AID 1224888); conditions: CellTox Green fluorescence; series mostly up to 76.8 µM; note: nearly all actives have a fitted effect of over 35% in size
# How it was run: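 Dead-cell fluorescence measured kinetically: asymmetric cyanine dye, HEK293, 600 cells/well, 5 h settle, 23 nL cpd/DMSO, 37 C, reads 0–40 h every 8 h.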
# [13] = qHTS RealTime-Glo MT Cell Viability Assay in HepG2 cells - 0 hour (AID 1224889); conditions: RealTime-Glo luminescence; series mostly up to 76.8 µM
# How it was run: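 Cells + NanoLuc/prosubstrate dispensed (600 cells/well) → 5 h at 37 C/5% CO2 → compounds in DMSO transferred → 40 h incubation at 37 C, luminescence read at 0, 8, 16, 24, 32, 40 h.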
# Tags give direction and shape of the fitted curve.
# Chain of UniProt P03372 (P03372 whole entry, looked up): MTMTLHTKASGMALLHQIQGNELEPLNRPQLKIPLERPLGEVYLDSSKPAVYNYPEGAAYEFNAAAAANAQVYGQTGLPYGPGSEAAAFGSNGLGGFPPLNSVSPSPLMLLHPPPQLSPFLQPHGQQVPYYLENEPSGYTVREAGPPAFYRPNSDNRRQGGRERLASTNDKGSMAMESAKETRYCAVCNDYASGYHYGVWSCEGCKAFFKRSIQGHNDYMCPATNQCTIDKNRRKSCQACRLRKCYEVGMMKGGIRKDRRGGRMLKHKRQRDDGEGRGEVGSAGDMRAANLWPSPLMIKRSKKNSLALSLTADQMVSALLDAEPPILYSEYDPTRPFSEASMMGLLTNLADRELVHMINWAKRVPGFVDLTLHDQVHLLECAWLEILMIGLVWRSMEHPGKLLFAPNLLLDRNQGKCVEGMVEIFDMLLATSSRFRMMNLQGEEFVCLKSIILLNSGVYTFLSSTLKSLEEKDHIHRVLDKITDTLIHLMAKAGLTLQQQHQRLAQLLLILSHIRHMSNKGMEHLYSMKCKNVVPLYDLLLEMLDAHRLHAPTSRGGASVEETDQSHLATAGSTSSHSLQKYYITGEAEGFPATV
# Chain of UniProt P10275 (P10275 whole entry, looked up): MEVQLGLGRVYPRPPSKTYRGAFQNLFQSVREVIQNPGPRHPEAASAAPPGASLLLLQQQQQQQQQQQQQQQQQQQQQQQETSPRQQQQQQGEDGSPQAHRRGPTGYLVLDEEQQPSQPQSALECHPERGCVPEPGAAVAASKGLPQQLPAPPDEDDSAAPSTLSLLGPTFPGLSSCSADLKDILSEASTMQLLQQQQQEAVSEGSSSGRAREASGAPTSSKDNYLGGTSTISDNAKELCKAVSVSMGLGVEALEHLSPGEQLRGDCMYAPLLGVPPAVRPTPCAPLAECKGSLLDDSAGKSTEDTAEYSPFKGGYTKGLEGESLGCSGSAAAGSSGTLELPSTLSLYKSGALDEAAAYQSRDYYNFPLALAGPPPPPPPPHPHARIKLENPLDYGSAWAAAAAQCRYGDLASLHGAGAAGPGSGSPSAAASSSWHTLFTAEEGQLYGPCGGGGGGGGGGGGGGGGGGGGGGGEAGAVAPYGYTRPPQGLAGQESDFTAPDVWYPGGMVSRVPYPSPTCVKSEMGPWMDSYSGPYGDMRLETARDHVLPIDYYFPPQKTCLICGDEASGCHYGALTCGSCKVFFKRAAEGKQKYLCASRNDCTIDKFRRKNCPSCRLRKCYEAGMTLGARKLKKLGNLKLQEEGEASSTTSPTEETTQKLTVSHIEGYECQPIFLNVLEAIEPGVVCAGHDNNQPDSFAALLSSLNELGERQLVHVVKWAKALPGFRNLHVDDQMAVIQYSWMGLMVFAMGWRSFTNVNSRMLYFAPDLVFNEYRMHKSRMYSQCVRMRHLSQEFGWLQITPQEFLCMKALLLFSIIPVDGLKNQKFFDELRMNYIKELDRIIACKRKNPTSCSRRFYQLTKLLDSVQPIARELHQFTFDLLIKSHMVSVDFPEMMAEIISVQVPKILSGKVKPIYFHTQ
compound,measurement,setting,value
COc1cc2c(N3CCN(C(=O)Nc4ccc(OC(C)C)cc4)CC3)ncnc2cc1OCCCN1CCCCC1,Potency,[1],active: 9.52 µM
same,Potency,[2],"inconclusive [cytotoxic, partial curve, poor fit]"
same,Potency,[3],"inconclusive [cytotoxic, partial curve, poor fit]"
same,Potency,[4],"inconclusive [inhibitor, partial curve, poor fit]"
same,Potency,[5],"inconclusive [activator, single point]"
same,Potency,[6],"inconclusive [cytotoxic, partial curve]"
same,Potency,[7],"inconclusive [cytotoxic, full curve, poor fit]"
Cc1c(C)n(CCN(C)C)c2ccc(C(=O)OCCN(C)C)cc12,Potency,[8],"inconclusive [cytotoxic, single point]"
same,Potency,[5],active: 11.2 µM
O=C1c2cccc3c2[C@H](CCC3)CN1[C@@H]1CN2CCC1CC2,Potency,[8],inactive
CCOC(=O)CC(=O)C(=O)OCC,Potency,[4],"inconclusive [inhibitor, single point]"
same,Potency,[9],"inconclusive [inhibitor, single point]"
CN(C)C(=O)Nc1ccc(Cl)c(Cl)c1,Potency,[9],"inconclusive [inhibitor, partial curve, poor fit]"
Cc1ccc(Nc2nccc(N(C)c3ccc4c(C)n(C)nc4c3)n2)cc1S(N)(=O)=O,Potency,[5],"inconclusive [activator, single point]"
Cc1cccc(C)c1[N+](=O)[O-],Potency,[10],inactive
C[n+]1ccn(CCO)c1,Potency,[2],inactive
same,Potency,[11],"inconclusive [activator, partial curve, poor fit]"
same,Potency,[7],inactive
CCCCOCCOCCOCCCC,Potency,[2],inactive
C=Cc1c(C)c2cc3[nH]c(cc4nc(cc5nc(cc1[nH]2)C(C)=C5CCC(=O)O)C(CCC(=O)O)=C4C)c(C)c3C=C,Potency,[2],inactive
same,Potency,[8],"inconclusive [cytotoxic, partial curve]"
same,Potency,[3],"inconclusive [cytotoxic, partial curve]"
CCc1ccc(O)c(OC)c1,Potency,[2],inactive
CCCCNC(=O)NS(=O)(=O)c1ccc(N)cc1,Potency,[2],inactive
same,Potency,[12],inactive
CCN1CCC[C@H]1CNC(=O)c1c(OC)ccc(Br)c1OC,Potency,[2],inactive
CC(C)S,Potency,[2],inactive
Cc1nc2ccccc2n1Cc1ccc(Cl)cc1,Potency,[2],active: 8.49 µM
same,Potency,[3],active: 5.96 µM
same,Potency,[9],active: 2.11 µM
Cc1cc(O)c2c(O)c3c(O)cccc3cc2c1,Potency,[2],"inconclusive [cytotoxic, partial curve, poor fit]"
same,Potency,[8],inactive
same,Potency,[6],inactive
C[Si](C)O[Si](C)C,Potency,[2],inactive
O=c1[nH]c2ccc(S(=O)CCN3CCC(Cc4ccc(F)cc4)CC3)cc2o1 (stereo not given),Potency,[2],"inconclusive [cytotoxic, partial curve, poor fit]"
same,Potency,[13],"inconclusive [cytotoxic, partial curve, poor fit]"
same,Potency,[9],"inconclusive [inhibitor, single point]"
O=CNc1ccccc1,Potency,[2],inactive
CC1=NS(=O)(=O)c2cc(Cl)ccc2N1,Potency,[2],inactive
COc1cc(NC(=O)CC(C)=O)c(OC)cc1Cl,Potency,[2],"inconclusive [cytotoxic, partial curve]"
same,Potency,[9],"inconclusive [inhibitor, partial curve, poor fit]"
C=C(C)C(=O)OCCOCC,Potency,[2],"inconclusive [cytotoxic, partial curve]"
same,Potency,[8],"inconclusive [cytotoxic, partial curve]"
CO[Si](CCCS)(OC)OC,Potency,[2],inactive
Cc1cc2c(s1)Nc1ccccc1N=C2N1CCN(C)CC1,Potency,[2],inactive
same,Potency,[12],inactive
same,Potency,[6],"inconclusive [cytotoxic, partial curve]"
same,Potency,[7],active: 5.31 µM
CC1=C(C)C(=O)C(C(CCCCCC(=O)O)c2ccccc2)=C(C)C1=O (stereo not given),Potency,[2],active: 10.7 µM
same,Potency,[13],"inconclusive [cytotoxic, partial curve]"
same,Potency,[7],"inconclusive [cytotoxic, partial curve]"
CCCCOCC(C)O (stereo not given),Potency,[2],inactive
Cc1cc(C)c(N)c(Cl)c1,Potency,[2],inactive
C#CCN(C)CCCOc1ccc(Cl)cc1Cl,Potency,[2],"inconclusive [cytotoxic, partial curve, poor fit]"
COc1ccnc2c1CCCCC2S(=O)c1nc2ccccc2[nH]1 (stereo not given),Potency,[2],active: 8.49 µM
